Data as given in PMC4336329 (PLoS ONE, 2015).
Hit rate of the full screen: of about 310,000 compounds, about 14,000 (4.5%) showed an effect of 50% or more. Effects have a minus sign here. The list shows a part of the results.

These compounds were tested against human ether-à-go-go-related gene (hERG) potassium channel (human, UniProt Q12809) (assay: primary screen, population patch clamp on CHO cells stably expressing hERG).
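Also: peak tail current of the secondary pulse compared with the same well before compound.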

Chain of human ether-à-go-go-related gene (hERG) potassium channel (Q12809 whole entry, looked up): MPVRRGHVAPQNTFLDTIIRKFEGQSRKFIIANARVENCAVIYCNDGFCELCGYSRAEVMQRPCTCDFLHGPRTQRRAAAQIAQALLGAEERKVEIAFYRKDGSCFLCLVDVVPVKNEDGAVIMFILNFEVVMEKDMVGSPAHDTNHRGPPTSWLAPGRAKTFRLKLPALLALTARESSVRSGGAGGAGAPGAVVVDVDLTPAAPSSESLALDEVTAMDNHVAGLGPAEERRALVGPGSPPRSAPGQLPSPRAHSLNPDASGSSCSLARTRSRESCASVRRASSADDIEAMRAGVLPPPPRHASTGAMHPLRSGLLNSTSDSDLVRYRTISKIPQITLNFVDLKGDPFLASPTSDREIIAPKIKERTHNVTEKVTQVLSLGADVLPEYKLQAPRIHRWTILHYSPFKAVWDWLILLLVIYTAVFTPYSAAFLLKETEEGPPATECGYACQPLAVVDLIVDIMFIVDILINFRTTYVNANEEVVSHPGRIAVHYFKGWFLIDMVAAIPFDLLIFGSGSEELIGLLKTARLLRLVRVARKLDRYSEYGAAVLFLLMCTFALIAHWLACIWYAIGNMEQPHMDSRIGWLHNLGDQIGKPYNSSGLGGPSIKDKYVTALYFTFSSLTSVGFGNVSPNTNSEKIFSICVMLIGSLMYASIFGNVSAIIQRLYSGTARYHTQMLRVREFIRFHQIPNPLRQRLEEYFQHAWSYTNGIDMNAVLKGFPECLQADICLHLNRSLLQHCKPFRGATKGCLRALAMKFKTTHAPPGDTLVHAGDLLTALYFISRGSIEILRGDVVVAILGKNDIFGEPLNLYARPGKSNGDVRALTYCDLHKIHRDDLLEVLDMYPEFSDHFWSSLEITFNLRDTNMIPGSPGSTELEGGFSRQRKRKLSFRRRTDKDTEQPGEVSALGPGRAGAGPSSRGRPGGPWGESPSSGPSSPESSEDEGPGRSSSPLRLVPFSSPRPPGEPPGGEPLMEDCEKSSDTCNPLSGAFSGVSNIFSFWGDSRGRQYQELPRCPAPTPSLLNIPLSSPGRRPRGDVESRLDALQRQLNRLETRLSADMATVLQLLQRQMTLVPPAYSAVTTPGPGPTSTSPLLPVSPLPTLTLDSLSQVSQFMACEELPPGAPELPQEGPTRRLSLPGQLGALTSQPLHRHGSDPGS

Row | Compound | hERG current change (%, negative = inhibition) at 10uM [%]
1 | CCOc1ccc(Br)cc1S(=O)(=O)NCCN(C)C | 7.6
2 | COC(=O)Nc1nc2ccc(Sc3ccccc3)cc2[nH]1 | 18.5
3 | COC(=O)c1ccc(NC(=O)C2CCN(C(=O)Nc3ccccc3)CC2)cc1 | -10
4 | CCOC(=O)C(c1ccccc1)N1CCN(c2ccc(OC)cc2)CC1 (stereo not shown) | 4.91
5 | O=S(=O)(Nc1ccc2c(c1)OCO2)c1cccs1 | -0.368
6 | COc1ccc(Cc2nnc(NC(=O)c3ccccc3F)s2)cc1 | 17.3
7 | COc1ccc(-n2c(-c3ccccc3)cc3c2CCCC3=O)cc1 | -47.6
8 | C[C@H](N)c1nnc(SCc2c(Cl)cccc2Cl)o1.Cl | 1.5
9 | CON/C=N/C(=S)Nc1ncc(C(F)(F)F)cc1Cl | 7.28
10 | CC(=O)C(C(C)=O)c1cc(NS(=O)(=O)c2ccccc2)ccc1NS(=O)(=O)c1ccccc1 | -10.5
11 | O=C(CSc1ccc(Br)cc1)NC1CCS(=O)(=O)C1 (stereo not shown) | 5.33
12 | CCOC(=O)C1CCCN(C2=NC(=O)/C(=C/c3ccc(O)c(OC)c3)S2)C1 (stereo not shown) | -43.5
13 | COc1ccc(CN(C)C(=O)CNC(=O)Cc2cccc3ccccc23)c(OC)c1OC | -1.27
14 | CCOC(=O)c1c(C(C)(C)C)oc2ccc(OCC#N)cc12 | -4.17
15 | CC(=O)c1ccc(N(CC(=O)NC2CCCC2)C(=O)CNC(=O)c2cccs2)cc1 | 12.4
16 | O=C(Cc1cccs1)N1CCCC(c2nc3c(nnn3Cc3cccc(Cl)c3)c(=O)[nH]2)C1 (stereo not shown) | -55.6
17 | COc1ccc(CCN2CC3=C(C2=O)C(c2ccccc2)NC(=O)N3C)cc1OC (stereo not shown) | -13
18 | O=S(=O)(Nc1ncccn1)c1ccc(NC(=S)NCc2cccnc2)cc1 | 33.8
19 | Nc1cccc2c1C(=O)N(C(=O)/C=C/c1cccc(F)c1)C2=O | -3.29
20 | COc1ccc(OC)c(S(=O)(=O)N2CCCC(C(=O)NCc3ccccn3)C2)c1 (stereo not shown) | 1.55
21 | Cc1cc(C)n(-c2nc(NCC3CCCO3)c3c4c(sc3n2)COC(C)(C)C4)n1 (stereo not shown) | -20.2
22 | C/C(=N\NC(=O)c1ccccc1OCc1ccc(F)cc1)c1ccccn1 | -0.556

Row | Compound | hERG current change (%, negative = inhibition) at 10uM [%]
23 | COC(C(=O)N/N=C(\C)c1ccc(C(C)(C)C)cc1)c1ccccc1 (stereo not shown) | 13.1
24 | O=C(OCC#CCSc1nc2ccccc2o1)c1ccco1 | -20.8
25 | O=C(NCCC1=CCCCC1)C1CCN(S(=O)(=O)c2cccs2)CC1 | -29.2
26 | COc1ccc(-c2nn3c(COc4ccccc4)nnc3s2)cc1OC | -10.7
27 | COc1ccc(C)cc1NC(=O)CN1C(=O)COc2ccc(C)cc21 | 19.8
28 | CC1=C(C(=O)Nc2ccccc2F)C(c2cccs2)NC(=S)N1 (stereo not shown) | -9.13
29 | O=C(Nc1c2c(nn1-c1ccc(F)cc1)CS(=O)C2)c1ccc(Br)o1 (stereo not shown) | 3.67
30 | COc1ccc(CCC(C)Nc2ccccc2F)cc1 (stereo not shown) | 20.2
31 | Cc1cc(O)c(C(C)C)cc1N=Cc1ccccc1O | 3.77
32 | CN1CCN(CCOc2ccc(-c3ccccc3)cc2)CC1.Cl | -56.3
33 | Cn1c(SCc2cccc3ccccc23)nnc1-c1ccco1 | -48.3
34 | O=c1[nH]c(SCc2n[nH]c(=S)n2-c2ccccc2)nc2ccccc12 | 14
35 | COc1cc(C(C2C(=O)CC(C)(C)CC2=O)C2C(=O)CC(C)(C)CC2=O)ccc1O | 16.8
36 | CCOC(=O)c1c(CN(C)C)n(-c2ccccc2)c2cc(Br)c(O)cc12.Cl | -75.8
37 | CCCCC(c1nnnn1CCOC)N1CCN(C)CC1.Cl (stereo not shown) | 1.46
38 | NC(=O)C(c1ccc(Cl)cc1)c1ccc(Sc2ccccc2)nn1 (stereo not shown) | -18.9
39 | C=CCn1c(=O)c2ccccc2n2c(SCC(=O)N3CCCc4ccccc43)nnc12 | -16
40 | Cn1nc(C(F)(F)F)c(C#N)c1N1CCN(c2ccccc2)CC1 | -22
41 | COc1ccc(C(=O)Cn2nc(CNc3ccc(Br)cc3)[n+]3c2CCCCC3)cc1.[Br-] | 15.4
42 | O=C1c2cccc3cccc(c23)C(=O)N1c1nccs1 | -2.49
43 | CC(C)(C)OC(=O)NCc1ccc(CNC(=O)c2[nH]cnc2C(=O)N[C@@H](Cc2ccccc2)C(=O)OCc2ccccc2)cc1 | -13.3
44 | O=C(O)c1cccc(NC(=S)NC(=O)c2ccc(-c3ccc(Cl)cc3)o2)c1 | 16.5

Row | Compound | hERG current change (%, negative = inhibition) at 10uM [%]
45 | O=C(COC(=O)c1cc([N+](=O)[O-])ccc1N1CCOCC1)NC1CCCCC1 | -30.7
46 | CC(C(=O)NCC1(c2ccccc2)CCOCC1)N1CCOCC1.Cl (stereo not shown) | 47.6
47 | O=S(=O)(c1ccccc1)N1CCN(CCc2ccccc2)CC1 | 14.2
48 | CC(C)c1ccc(NC(=O)CCNS(=O)(=O)c2ccc3[nH]c(=O)oc3c2)cc1 | 19.9
49 | O=C(NCCc1cccc(Cl)c1)c1cc2ccccc2oc1=O | 12.3
50 | O=C(NC(=S)Nc1ncccn1)c1ccccc1Cl | 11.8
51 | O=C(NCCc1c[nH]c2ccccc12)C(F)(F)F | 3.79
52 | CCn1c(SCC(=O)NCc2ccco2)nc2c(c1=O)SC(C)C2 (stereo not shown) | 1.54
53 | CC(OC(=O)CNC(=O)c1sc2ccccc2c1Cl)C(=O)NC1(C#N)CCCCC1 (stereo not shown) | -22.8
54 | O=C(NCCCc1ccccc1)c1ccncc1 | -15.2
55 | CC(=O)[C@@H]1[C@@H]2C(=O)N(C3CCCCC3)C(=O)[C@@H]2C2c3ccccc3C=CN21 (stereo partly shown) | 0.0132
56 | Cc1ccc(S(=O)(=O)CCC(=O)NCCc2ccccc2)cc1 | 22.2
57 | O=C(NCSC1=NCCS1)c1ccccc1 | 6.71
58 | Cc1cnc(NC(=O)c2c(Cl)cnn2C)s1 | 19
59 | COc1ccccc1C(=O)CSc1cccc[n+]1[O-] | 9.12
60 | COc1ccc(C2C3C(=O)N(Cc4ccccc4)C(=O)C3ON2c2ccccc2)c(OC)c1OC (stereo not shown) | 1.47
61 | Cc1cc(NC(=O)c2cc(-c3cccs3)on2)no1 | -4.68
62 | COc1ccccc1CNC(=O)C1Cc2cc(S(=O)(=O)N3CCCC3)ccc2N1C(C)=O (stereo not shown) | 11
63 | O=C(COc1ccccc1)NCCSc1ccccc1 | -5.26
64 | CC(C)=CC(=O)OCC(=O)Nc1ccc(F)cc1Cl | -0.186
65 | COc1ccc(C(=O)Nn2c(SCC(=O)c3ccccc3)nc3ccccc3c2=O)cc1 | -15.9
66 | CCN(CC)CCNC(=O)c1ccc(Cl)c(S(=O)(=O)N2CCCCCC2)c1.Cl | -67.4

Row | Compound | hERG current change (%, negative = inhibition) at 10uM [%]
67 | CC(C)NC(=O)C(=O)Nc1cc2c3c(c1)CCC(=O)N3CCC2 | 11.4
68 | CN(c1ccc(OCC(=O)OCC(=O)Nc2cccc([N+](=O)[O-])c2)cc1)S(=O)(=O)c1ccc(F)cc1 | -5.67
69 | COc1ccc(C2=NS(=O)(=O)N(C)C(C(=O)NC(C)c3ccccc3)=C2)cc1 (stereo not shown) | -23.8
70 | Cc1nc(Oc2ccccc2)c2oc3ccccc3c2n1 | 13.3
71 | O=C(Cc1c[nH]c2ccccc12)NCc1ccc2c(c1)OCO2 | 19.4
72 | CCC1(CC)NC(=O)N(CC(=O)OCC(=O)NC(=O)c2ccc(Cl)cc2)C1=O | -6.39
73 | COc1ccc(/C=N/NC(=O)c2cccc([N+](=O)[O-])c2)c2ccccc12 | 16.2
74 | Cc1c(Br)c(-c2n[nH]c(=S)n2Cc2ccco2)nn1C | 13.4
75 | CCc1noc(N)c1C(=O)Nc1ccc(F)c(Cl)c1 | 5.45
76 | O=C(COc1ccc(/C=N/NC(=O)CSCc2ccc([N+](=O)[O-])cc2)cc1)NCc1ccco1 | -23.7
77 | Cc1cccc(NC(=O)c2ccc(OCc3c(C)noc3C)cc2)c1 | -4.24
78 | COc1ccc(/C=C/CN2CCN(CC(C)C)C(CCO)C2)cc1 (stereo not shown) | -52.2
79 | O=C(CCSCCC(=O)NCc1cccs1)NCc1cccs1 | 6.75
80 | Cc1csc(NC(=O)CSc2nnc(C)c(=O)n2N)n1 | 18.2
81 | Cc1c(C(=O)N2CCCCC2)sc(NC(=O)C2CC2)c1C#N | -2.5
82 | COc1ccc(C(=O)NCCc2nnc3ccc(SCC(=O)N4CCCCC4)nn23)cc1 | 5.54
83 | CCCSc1nnc(NC(=O)CSc2nc3[nH]c(=O)cc(O)c3s2)s1 | 12.5
84 | COC(=O)c1cc(-c2ccc(OC)cc2F)nc2nc(SC)[nH]c(=O)c12 | 15.1
85 | O=C(NC(=S)Nc1ccc(CN2CCOCC2)cc1)c1ccc(-c2cccc(Cl)c2)o1 | 7.11
86 | O=C(NCCc1ccncc1)C(F)(F)F | 18
87 | COC(=O)c1ccc(N2C(=O)CC(SCC(=O)Nc3ccc(OC)cc3)C2=O)cc1 (stereo not shown) | 2.95
88 | O=C(COC(=O)c1n[nH]c(=O)c2ccccc12)NC1CCCCC1 | -0.0274
